Results published in the GPR68 mutational scans of Howard et al. (2025).
Scores whose standard error is large were omitted. Not listed are two conditions whose scores span a narrow range. Read del as a deletion of the residues named and ins as an insertion between two positions. For some assays here: How much ogerin was present is not stated here.

B1: GPR68, Q15743 (parent)
chain: MGNITADNSSMSCTIDHTIHQTLAPVVYVTVLVVGFPANCLSLYFGYLQIKARNELGVYLCNLTVADLFYICSLPFWLQYVLQHDNWSHGDLSCQVCGILLYENIYISVGFLCCISVDRYLAVAHPFRFHQFRTLKAAVGVSVVIWAKELLTSIYFLMHEEVIEDENQHRVCFEHYPIQAWQRAINYYRFLVGFLFPICLLLASYQGILRAVRRSHGTQKSRKDQIQRLVLSTVVIFLACFLPYHVLLLVRSVWEASCDFAKGVFNAYHFSLLLTSFNCVADPVLYCFVSETTHRDLARLRGACLAFLTCSRTGRAREAYPLGAPEASGKSGAQGEEPELLTKLHPAFQTPNSPGSGGFPTGRLA

Assays:
[1] = variants of: B1; experiment: cAMP reporter score (Enrich2 score, wild type = 0); higher = more signal; HEK293T, FACS bins
[2] = variants of: B1; experiment: surface expression score (Enrich2 score, wild type = 0); higher = more signal; HEK293T, FACS bins

Variant | cAMP reporter score ([1]; pH 5.5) | cAMP reporter score ([1]; pH 6) | cAMP reporter score ([1]; pH 6, modulator: ogerin) | cAMP reporter score ([1]; pH 6.5, modulator: ogerin) | surface expression score [2]
A298_L300del | -0.4 | -0.183 | -0.569 | -0.329 | 0.895
A298_R299insGS | -1.07 | -0.515 | -0.864 | -1.36 | -0.309
R299_L300del | -0.743 | -0.297 | -1.31 | -0.414 | -0.633
R299_L300insG | 0.566 | -0.925 | -1.45 | 0.075 | 1.24
R299_L300insGS | -1.26 | -0.476 | -1.6 | -1.32 | -0.629
R299del | -0.631 | -1.18 | -1.66 | -1.31 | -1.24
L300A | -0.422 |  | -0.626 | -0.419 | -0.302
L300C | 0.291 | 0.192 | 0.005 | -0.278 | -0.127
L300D | -1.42 | -1.15 | -1.09 | -1.34 | 0.369
L300E | -0.973 | -0.37 | -1.6 | -0.649 | 0.604
L300F | -0.61 | 0.653 | -0.645 | 1.29 | 0.123
L300G | -0.428 | -0.411 | -0.838 | -0.896 | -0.877
L300H | -0.579 | -0.846 | -0.447 | -1.39 | -0.043
L300I | 0.365 | 1.04 | 0.144 | -0.511 | 0.427
L300K | 1.05 | 0.051 | 0.762 | -0.287 | 0.448
L300M | -0.305 | -0.397 | -0.448 | 0.092 | -0.799
L300N | -0.53 | -0.98 | -0.845 | -1.02 | 0.665
L300P | -0.629 | -0.509 | -0.687 | -0.147 | 0.703
L300Q | -0.537 | -1.58 | -1.54 | -1.07 | -0.094
L300R | 0.555 |  | -0.592 |  | 
L300S | 0.392 | -0.808 | -0.559 | -0.977 | 0.801

Variant | cAMP reporter score ([1]; pH 5.5) | cAMP reporter score ([1]; pH 6) | cAMP reporter score ([1]; pH 6, modulator: ogerin) | cAMP reporter score ([1]; pH 6.5, modulator: ogerin) | surface expression score [2]
L300T | 0.025 | -0.961 | -0.825 | -0.628 | 0.009
L300V | -0.339 | 0.026 | -0.55 | -1.24 | -0.493
L300W | 0.18 | 0.754 | 0.515 | 1.49 | -0.024
L300Y | 1.26 | 0.158 | 0.847 | 0.196 | 0.401
R301_A303del | -0.098 | -0.502 | -0.547 | -1.12 | -1.53
G302_A303insGS | 0.297 | -0.249 | 0.384 | -0.336 | -0.856
G302_C304del | -0.296 | -0.65 | -0.408 | -0.754 | -1.1
G302del | 1.27 | -0.211 | 0.632 | 0.138 | 0.174
A303_C304insGSG | 1.63 | -0.116 | 1.05 | 0.324 | 0.488
A303del | -1.03 | -0.66 | -0.993 | -0.802 | -1.81
L305_A306del | 0.272 | 0.021 | 0.173 | -0.211 | -0.282
L305_A306insGSG | 1.18 | -0.595 | 0.965 | 0.152 | -0.131
L305_F307del | 0.808 | -0.227 | 1.23 | -0.93 | -0.333
A306_F307del | 0.844 | 2 | 1.02 | 2.9 | 0.602
L308A | 0.88 | -0.135 | 1.05 | 0.05 | 0.201
L308C | 0.019 | -0.313 | 0.33 | 0.348 | -0.163
L308D | -0.086 | -0.442 | -0.14 | -0.665 | -0.365
L308E | -0.56 |  | -0.655 | -0.664 | 
L308F | 0.174 | 0.95 | 0.551 | 1 | 0.295
L308G | 1.52 | 0.9 | 1.33 | 1.25 | 0.458
L308H | 0.003 | -0.501 | 0.204 | 0.141 | -0.339

Variant | cAMP reporter score ([1]; pH 5.5) | cAMP reporter score ([1]; pH 6) | cAMP reporter score ([1]; pH 6, modulator: ogerin) | cAMP reporter score ([1]; pH 6.5, modulator: ogerin) | surface expression score [2]
L308I | 0.577 | 0.357 | 1.37 | 1.05 | 0.389
L308K | 0.473 | 0.919 | 0.436 | -0.21 | 0.252
L308M | 0.472 | 0.779 | -0.03 | 0.348 | 0.029
L308N | 0.973 | 0.417 | 1.03 | 0.187 | 1.22
L308P | -0.489 | 0.753 | 0.032 | -0.787 | 0.169
L308Q | 0.104 | 0.409 | 0.249 | -0.373 | -0.665
L308R | 0.34 | 0.289 | 0.132 | -0.948 | -0.618
L308S | -0.248 | 0.056 | -0.254 | 0.154 | -0.391
L308T | 0.477 | -0.598 | -0.316 | 0.507 | 0.177
L308V | 0.418 | 0.233 | 1.04 | 0.129 | 0.582
L308W | 0.341 | -0.441 | 0.68 | -0.081 | -0.093
L308Y | -0.284 | 0.03 | 0.253 | -0.384 | -0.958
T309_S311del | 0.659 | 0.825 | 0.599 | 0.955 | 0.026
C310_R312del | -0.828 | -0.751 | -1.4 | -0.91 | -1.16
C310_S311insG | 1.46 | 0.178 | 1.11 | 1.66 | 1.12
S311_R312insG | -0.841 | -0.246 | -0.901 | -0.409 | -1.28
T313_G314del | 0.105 | 0.436 | 0.608 | 0.198 | 0.197
R315_A316insG | -0.866 | 0.017 | -1.02 | -0.179 | 1.61
R315_A316insGS | -0.525 | 0.393 | -0.698 | -0.461 | -0.178
